From the supplement of paper PMC8748497
Some of the results follow.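 Rule for the calls: active = GRHL reporter fold change of at least 2 over DMSO at 10 µM; inactive = below 2-fold.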 Many values rest on one well or one pass, so single values are uncertain.

The molecules below were run on HEK293 GRHL-luciferase reporter (assay: GRHL luciferase reporter activity, fold change over DMSO control; higher = stronger GRHL reporter activation). Details: 10 µM; 24 h.
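Note: stable HEK293 line carrying repeated GRHL consensus sites upstream of a minimal promoter driving luciferase, luminescence read 24 h post-treatment, normalized to 0.5% DMSO vehicle wells.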

GRHL luciferase reporter activity, inactive:
CC(=O)/N=c1/sc(S(N)(=O)=O)nn1C 1.06, CCC[C@H](N[C@@H](C)C(=O)N1[C@H](C(=O)O)C[C@@H]2CCCC[C@@H]21)C(=O)O 1.01, COC(=O)c1c(OC)cc2c(c1C)Oc1c(Cl)c(O)c(Cl)c(C)c1C(=O)O2 1.25, Cn1c(=O)c2c(ncn2CC(O)CO)n(C)c1=O (centres undefined) 0.829, O=c1[nH]c(=O)n([C@H]2C[C@H](O)[C@@H](CO)O2)cc1F 0.363, CC(C)[C@H](N)C(=O)O 0.855, CC(=O)NCCc1ccc(O)c(-c2c(O)c(O)c3c(c2O)C(=O)c2c(cc(O)c(C(=O)O)c2C(=O)O)C3=O)c1 0.821, NCCCS(=O)(=O)O 1.09, COc1ccc2c(=O)cc(-c3ccccc3)oc2c1OC 1.63, Cc1cc(N)c2ccccc2[n+]1CCCCCCCCCC[n+]1c(C)cc(N)c2ccccc21 1.03, O=c1c(O)c(-c2ccc(O)cc2O)oc2cc(O)cc(O)c12 1.16, C#CCN[C@@H]1CCc2ccccc21 0.93, COc1cc(C(=O)N2CCOCC2)cc(OC)c1OC 0.891, COc1ccc(/C=C/C(=O)Nc2ccccc2C(=O)O)cc1OC 1.74, Clc1ccc(COC(Cn2ccnc2)c2ccc(Cl)cc2Cl)c(Cl)c1 (centres undefined) 1.72, Cc1ccccc1C(OCCN(C)C)c1ccccc1 (centres undefined) 0.824, Cc1c(C)c2c(c(C)c1O)CCC(C)(CCCC(C)CCCC(C)CCCC(C)C)O2 (stereo not drawn) [alpha-TOCHOPHEROL [4 mM]] 0.923, CC(C)Cn1c(=O)n(C)c(=O)c2nc[nH]c21 0.759, COc1ccc2[nH]cc(CCNC(C)=O)c2c1 1.37, COC(=O)[C@H]1[C@H]2C[C@H]3c4[nH]c5cc(OC)ccc5c4CCN3C[C@H]2C[C@@H](OC(=O)c2cc(OC)c(OC)c(OC)c2)[C@@H]1OC 1.36, CC[C@@H](C(=O)[C@@H](C)[C@@H](O)[C@H](C)CCc1ccc(C)c(O)c1C(=O)O)[C@H]1O[C@](CC)([C@H]2CC[C@](O)(CC)[C@H](C)O2)C[C@@H]1C 0.807, Cc1cc(O)c2c(c1)C(=O)c1cc(O)cc(O)c1C2=O 1.59, c1ccc(C2CN3CCSC3=N2)cc1 (centres undefined) 1.05, C[C@H]1[C@H](C)CC[C@]2(C(=O)O)CC[C@]3(C)C(=CC[C@@H]4[C@@]5(C)CC[C@H](O)C(C)(C)[C@@H]5CC[C@]43C)[C@H]12 0.366, CC(=O)OC/C=C(\C)CC/C=C(\C)CC/C=C(\C)CC/C=C(\C)CC/C=C(\C)CC/C=C(\C)CC/C=C(\C)CC/C=C(\C)CCC=C(C)C 0.905, O=C([O-])[C@H](O)[C@@H](O)[C@H](O)[C@H](O)CO.[Na+] 0.873, CC(C)=CCc1c(O)cc2oc(C)cc(=O)c2c1O 1.81, C[C@]12CC[C@@H]3c4ccc(OS(=O)(=O)O)cc4CC[C@H]3[C@@H]1CCC2=O 1.08, C[C@@H](c1ncncc1F)[C@](O)(Cn1cncn1)c1ccc(F)cc1F 0.926, CC(N/C(=N\C#N)Nc1ccncc1)C(C)(C)C (centres undefined) 0.98, CN(C)CCCN1c2ccccc2CCc2ccc(Cl)cc21 0.713, COc1cc(-c2ccc(/N=N/c3ccc4c(S(=O)(=O)O)cc(S(=O)(=O)O)c(N)c4c3O)c(OC)c2)ccc1/N=N/c1ccc2c(S(=O)(=O)O)cc(S(=O)(=O)O)c(N)c2c1O 0.479, CC(C)C[C@H](N)C(=O)N[C@@H](C)C(=O)O 0.963

GRHL luciferase reporter activity, active:
O=c1[nH]c(=O)n([C@H]2C[C@H](O)[C@@H](CO)O2)cc1I 3.75, O=C1CC(c2ccc(O)cc2)Oc2ccccc21 (centres undefined) 3.5, CC(C)(Oc1ccc(C2CC2(Cl)Cl)cc1)C(=O)O (centres undefined) 2.33, COC1=CC(=O)C(O)=C/C1=C\C=C\c1ccccc1 7.02, CC(C)Oc1ccc2c(=O)c(-c3ccccc3)coc2c1 2.5, COCCCOc1ccnc(C[S+]([O-])c2nc3ccccc3[nH]2)c1C (centres undefined) 3.37
